Measurements as given in publication PMC12040169 (PLOS Biology, 2025).
This is one part of the list.

Tested on: T1, C. trachomatis L2/434/Bu expressing GFP (CTL2-GFP)
T1 construct: L2/434/Bu GFP intracellular growth in HeLa cells
Parameters: species or system HeLa; C. trachomatis total inclusion area by high-content imaging, normalised to DMSO
Settings: total inclusion area; 28.5 h, 10 µM; inhibitor
Method in brief: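 Bulk GFP and resorufin signals were read first. Wells were then fixed, stained with Hoechst and imaged to detect GFP inclusions and host nuclei. MICs followed the previously described calculation.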

Structure (SMILES)	% of control remaining
COCC1CCCN(S(=O)(=O)c2cnc3ccsc3c2)C1 (stereo not drawn) [CBK306397]	25.366
N#Cc1ccc(NC(=O)NCC2(N3CCOCC3)CCSC2)cc1 (stereo not drawn) [CBK304546]	60.1696
Fc1ccccc1-c1nc2cnccn2c1NCc1ccco1 [CBK283681]	71.2177
O=C(Oc1ccc(/C=N/Nc2nc(N3CCOCC3)nc(N3CCOCC3)n2)cc1)c1ccccc1 [CBK262064]	100.36
O=c1[nH]c2ncc(-c3cccc(Br)c3)nc2n1Cc1ccccn1 [CBK065020]	81.9945
CSCCC(=O)N1CCC2(CCN(C(=O)Cc3c[nH]c4ccccc34)C2)C1 (stereo not drawn) [CBK131442]	71.828
COc1cc(C(=O)CCN2CCCCC2)cc(OC)c1OC [CBK015639C]	33.0218
CC(=O)N1CCC[C@H]2NC(=O)CNC(=O)C3(C/C=C/C[C@H]21)CCN(CC(C)C)CC3 [CBK292088]	121.406
CC(=O)Nc1ccc(CNC(=O)c2ccoc2C)cc1 [CBK305010]	78.0262
CCOc1ccc(S(=O)(=O)N2CCCN(CC(C)C)CC2)c2cccnc12 [CBK062758]	88.2162
COc1cccc(C(=O)NCCC(=O)N2CCC3(CC2)CNC(=O)O3)c1 [CBK306803]	50.9525
CC(=O)Nc1cccc(-c2cncc(NCc3cccc(Cl)c3)n2)c1 [CBK065236]	98.9788
CN(C)C(=O)c1cccc(-c2nccnc2NCCO)c1 [CBK036582]	91.1626
CC1(O)CCCN(C(=O)c2c[nH]nc2-c2cc3ccccc3o2)C1 (stereo not drawn) [CBK305555]	62.9553
Cc1cc(NS(=O)(=O)N2CCCCC2)no1 [CBK269947]	47.5199
COC(=O)c1cn([C@H]2CO[C@H]3[C@@H]2OC[C@@H]3NC(=O)Nc2ccc(OC)cc2)nn1 [CBK289500]	99.4864
Cc1cn(CC(=O)N2CCC3(CCN(C(=O)Cc4c[nH]c5ccccc45)C3)C2)c(=O)[nH]c1=O (stereo not drawn) [CBK131445]	88.08
Cc1nc(C)n(CC2CCCN(Cc3cc(=O)n4ccccc4n3)C2)n1 (stereo not drawn) [CBK304135]	67.0777
COCCn1nc(C(=O)N2CCCc3ccccc32)ccc1=O [CBK305590]	46.0018
CCNC(=O)CNc1cc(C#N)ccc1C(F)(F)F [CBK306432]	62.8082
COCCc1noc(CC2CCN(c3ccc(Cl)c(C#N)n3)CC2)n1 [CBK304177]	58.8461
O=C1CC[C@@H](NCc2cccs2)[C@H](c2cc(F)cc(F)c2)N1 [CBK283129]	0.8582
COc1ccc2c(c1)CCC1CN(C)N=C21 (stereo not drawn) [CBK010890]	74.7637
O=C1CSC(=O)N1CNc1ccc(Br)cc1 [CBK261819]	88.1621
COc1cc(-c2cc(N3CCN(Cc4cccnc4)CC3)n3nccc3n2)cc(OC)c1OC [CBK037063]	129.731
Cc1cc(N(C)C)nc(SCc2n[nH]c(=S)o2)n1 [CBK006887]	61.6816

Structure (SMILES)	% of control remaining
Cc1cn2c3c(=O)n(CCN4CCOCC4)c(=O)n(C)c3nc2n1CC1CCCO1 (stereo not drawn) [CBK269985]	95.2206
Cc1[nH]c2ccccc2c1C(=O)CSc1nnc(Cc2cccs2)n1C [CBK268663]	68.4615
COc1ccc(C(=O)CSc2nnc(-c3ccccc3)[nH]2)cc1[N+](=O)[O-] [CBK263299]	66.1259
Cc1nc2ccccc2n1CC(=O)N(Cc1cccnc1)C1CC1 [CBK305248]	51.8493
CC(=O)N1CCN([C@H]2[C@@H]3OC[C@@H](O3)[C@@H](NCC3CCCCC3)[C@@H]2O)CC1 [CBK288809]	99.9035
CCn1ncc(S(=O)(=O)N2CCCC(c3ccccc3)C2)c1C (stereo not drawn) [CBK282760]	112.937
Cc1nc2c(C(=O)NCC(F)(F)F)cnn2c(C)c1Cc1ccccc1 [CBK162208]	82.1997
O=S(=O)(CC(F)(F)F)Nc1cccc2cc[nH]c12 [CBK153585]	108.039
CCOC(=O)C(NC(=O)c1cn(C)cn1)c1cccc(C)c1C (stereo not drawn) [CBK304098]	61.907
CC(O)c1cc2n(n1)CCN(C(=O)c1csc(Cc3ccccc3)n1)C2 (stereo not drawn) [CBK307437]	104.618
CC(Oc1ccccc1)C(=O)N1CCN(C/C=C/c2ccccc2)CC1 (stereo not drawn) [CBK269050]	96.4852
Cn1nc(-c2ccc(S(=O)(=O)Nc3nc(-c4cccnc4)cs3)s2)cc1C(F)(F)F [CBK067270]	101.923
CCc1cc(CNS(=O)(=O)c2ccc(C)s2)on1 [CBK283066]	101.996
CCc1nnc2sc(-c3ccccc3Br)nn12 [CBK269533]	61.4265
O=C(NCc1nc2ccccc2[nH]1)c1cc(Br)cnc1NCCOc1ccccc1 [CBK076220]	97.7417
CCCC(=O)N1CCCCC1c1nn(C)cc1-c1onc(C)c1C (stereo not drawn) [CBK283409]	106.664
CCOC(=O)c1[nH]c2ccccc2c1NC(=O)c1c(F)ccc(Cl)c1F [CBK160141]	97.3651
O=C(c1cc(F)c(F)cc1F)N1CCC2(CCCN(CCCn3c(=O)[nH]c4ccccc43)C2)C1 (stereo not drawn) [CBK132004]	91.0251
Brc1cccc(/C=N/c2ccc3nc(-c4ccccc4)[nH]c3c2)c1 [CBK261143]	89.7007
COc1ccc(-n2c(SCC(N)=O)nc3sc4c(c3c2=O)CC(C)(C)OC4)cc1 [CBK263232]	91.6911
CSc1ccc(/C=C(\C#N)c2nn(-c3ccccc3)c(N)c2C#N)cc1 [CBK262339]	78.7745
Cn1cnc2cc(-c3nnn[nH]3)ccc21 [CBK306265]	41.7689
COc1ccc(N(CC(O)CN2CCOCC2)S(=O)(=O)c2ccccc2)cc1 (stereo not drawn) [CBK263589]	89.5383
Cc1ccc(CCC(=O)N2CCCC2c2nc3ccccc3[nH]2)o1 (stereo not drawn) [CBK284012]	87.8205
Nc1ccc(-c2ccccc2)c2ccccc12 [CBK084312]	84.0063
